# Experimental data: PubChem BioAssay AID1345083 (National Center for Advancing Translational Sciences (NCATS), 2018)
# About 6,200 (6.6%) of roughly 94,000 compounds were called active. Inconclusive results, whose numbers are uncertain, are shown with a selection of clear calls. Calls come from the whole dose curve; as a rule, active = well fitted inhibition curve with a large enough effect; inconclusive = small, poorly fitted or top-dose-only effect; inactive = flat fitted curve, though single readings scatter. Potencies beside an inconclusive call are fits to weak or partial responses and may not hold up.
# Test: Cytotoxic Profiling in HEK 293 Cell Line of Diverse Libraries Using Quantitative High-Throughput Screening; note: nearly all actives have a fitted effect of over 60% in size
# Conditions: HEK 293 viability, ATP luminescence (CellTiter-Glo), 48-72 h; activity change, negative = cytotoxicity: at 115 µM (top of the series) unless noted; series mostly up to 115 µM
# Method in brief: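 Cytotoxicity was scored by loss of ATP-coupled luminescence (CellTiter-Glo) in HEK 293 cells. Compound treatment ran 48 or 72 hr at 37 degree Celsius, 5% CO2, 95% humidity.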
# % is set by controls: 0 for no effect and ±100 for the full control effect; potency is the fitted concentration of half-maximal effect; tags give direction and shape of the fitted curve.
Structure (SMILES),"activity change, negative = cytotoxicity",Potency,outcome
COc1cc(-c2ccnc3nc(CCC4CCCC4)nn23)cc(OC)c1OC,inactive: -21.9%,–,–
CC(NC(=O)c1ccc(-c2ccc(N3CCCCCC3)nc2)cc1)c1cccnc1 (stereo unspecified),–,"inconclusive: 25.1 µM [inhibitor, full curve, poor fit]",–
CSc1ccc(-c2cccc(C(=O)NCC(=O)N3CCOCC3)c2)cc1,–,"inconclusive: 10 µM [inhibitor, full curve, poor fit]",–
O=C(CN1C(=O)COc2ccc(C(=O)COc3cccc(F)c3)cc21)NCc1ccc(F)cc1,–,"inconclusive: 63.1 µM [inhibitor, partial curve, poor fit]",–
O=C(Cc1ccccc1)N1CCC(Cc2nc(-c3cccnc3)n[nH]2)C1 (stereo unspecified),–,"inconclusive: 22.4 µM [inhibitor, full curve, poor fit]",–
O=C1N(c2ccccc2)c2ccccc2C12CCN(Cc1cccnc1)C2 (stereo unspecified),–,"inconclusive: 50.1 µM [inhibitor, partial curve, poor fit]",–
C#CCNC(=O)C[C@@H]1c2nc(NC(=O)c3ccc(F)cc3)sc2C[C@@H]2[C@](C)(CO)[C@H](O)CC[C@]21C,–,"inconclusive: 79.4 µM [inhibitor, single point]",–
CCOC(=O)[C@@H]1[C@@H](OC)C(=O)N(C)C12CCN(C(=O)OCc1ccccc1)CC2,inactive: -22.3%,–,–
C[S+](=O)([O-])NCCn1ccc2cc(OC3CCN(c4ncc(F)cn4)CC3)cnc21,–,"inconclusive: 89.1 µM [inhibitor, partial curve, poor fit]",–
Cc1nc2n(c1C(=O)NCCOc1ccccc1)CCC(Nc1ccc(F)cc1)C2 (stereo unspecified),–,"inconclusive: 100 µM [inhibitor, partial curve]",–
COc1ccccc1-c1[nH]ncc1CN1CCCN(S(=O)(=O)c2ccccc2)CCC(=O)NCC1,–,"inconclusive: 89.1 µM [inhibitor, single point]",–
CC(=O)N1CCC(Cc2ccc(C(=O)NCc3cc(F)cc(F)c3)cc2)CC1,–,"inconclusive: 50.1 µM [inhibitor, partial curve, poor fit]",–
O=C(NCc1ccccn1)c1ccc2c(c1)CC(=O)N2Cc1ccc(F)cc1,–,"inconclusive: 44.7 µM [inhibitor, partial curve, poor fit]",–
COC(=O)C1=C(C)N=C2SC=C(CC(=O)N3CCCCC3C)N2C1c1cccc(OC)c1 (stereo unspecified),–,"inconclusive: 39.8 µM [inhibitor, partial curve, poor fit]",–
COCCN(C)Cc1ccc(CC2CCN(C(=O)C3(c4ccc(OC)cc4)CC3)CC2)cc1,–,active: 39.8 µM,–
COCC(=O)N[C@H](C)c1onc(-c2cccnc2)c1C(=O)O,inactive: -21% [at 172 µM],–,–
CN1CCC(CC(=O)N2CCC3(CC2)CC(CCOc2ccc(F)cc2)CCO3)CC1 (stereo unspecified),–,"inconclusive: 50.1 µM [inhibitor, partial curve, poor fit]",–
O=C(NCCc1ccccc1F)c1ccc2oc(-c3ccccn3)nc2c1,inactive: -0.957%,–,–
CCOc1ccc(NC(=O)CC2CCOCC2)cc1,inactive: -9.82%,–,–
CN(Cc1cccn1C)Cc1ccnn1C,–,active: 100 µM,–
O=C(c1ccc(Cl)nc1)N1CCC(C(=O)N2CCC(N3Cc4cccn4C3=O)CC2)CC1,–,–,inactive
COc1ccccc1CNC(=O)[C@@H](C)C1CC[C@@]2(C)CC[C@H](NC(=O)c3ccncc3)[C@@H](C)[C@@H]2[C@H]1O (stereo partly specified),–,"inconclusive: 89.1 µM [inhibitor, single point]",–

Structure (SMILES),"activity change, negative = cytotoxicity",Potency,outcome
CC(C)CN1CCCC(c2nc3ccc(F)cc3c(=O)[nH]2)C1 (stereo unspecified),–,active: 25.1 µM,–
Cc1n[nH]c(C)c1CNC(=O)c1ccc(CC2CCN(S(C)(=O)=O)CC2)cc1,–,"inconclusive: 39.8 µM [inhibitor, partial curve]",–
CN(C)C(=O)CCc1ccc(CC2CCN(Cc3ccccc3)CC2)cc1,–,"inconclusive: 79.4 µM [inhibitor, partial curve, poor fit]",–
Cn1nc(C(=O)NCc2cccnc2)c2c1CN(C(=O)CC1CCCCC1)C2,inactive: -27.2%,–,–
O=C(c1nc2sccn2c1Br)N1CCC(N2CCCCCC2=O)CC1,inactive: -6.71%,–,–
CN1C(=O)c2cccn2CC1CNC(=O)c1[nH]nc2c1COc1ccccc1-2 (stereo unspecified),–,"inconclusive: 89.1 µM [inhibitor, single point]",–
O=C(Nc1ccccc1F)N1CC2CCC(C1)N2Cc1cccc(Cl)c1,–,"inconclusive: 79.4 µM [inhibitor, single point]",–
O=C(c1ccc(F)c(F)c1)N1CCC[C@H]1c1nc(-c2ccccc2)no1,–,"inconclusive: 79.4 µM [inhibitor, partial curve]",–
Clc1cccc(-c2cnc3n2C[C@H](CNCc2ccccc2)OC3)c1,–,"inconclusive: 89.1 µM [inhibitor, partial curve, poor fit]",–
COc1ccc(Cn2c(=O)c(C(=O)N3CCN(C(=O)NC4CCCC4)CC3)nc3cccnc32)cc1,inactive: -12.7%,–,–
CCn1c(=O)c2c(cc(C)n2C)n(CC(=O)Nc2ccc(C)cc2Cl)c1=O,–,"inconclusive: 89.1 µM [inhibitor, single point]",–
CNC(=O)[C@@H](c1ccccc1F)N1CCC[C@H]1C(=O)NCC1CC1,inactive: 4.95% [at 172 µM],–,–
O=C(Cc1ccccc1F)N1CCCC(Cc2nncn2Cc2ccccc2)C1 (stereo unspecified),inactive: -7.39%,–,–
O=C1c2c(nc(COc3cc(F)cc(F)c3)n2Cc2ccccc2)NCCN1Cc1ccccc1,–,active: 25.1 µM,–
COc1ccc(C2(C(=O)N3CCCC(Cc4nc(C5CCOCC5)no4)C3)CC2)cc1 (stereo unspecified),–,"inconclusive: 89.1 µM [inhibitor, single point]",–
Cc1cc(CNC(=O)C2CCCCn3nnnc32)c2[nH]c(-c3ccccc3)c(C)c2c1 (stereo unspecified),–,active: 25.1 µM,–
Cc1noc(-c2ccc(C(C)(C)C)cc2)c1C(=O)NCc1ccc(F)cc1F,–,"inconclusive: 28.2 µM [inhibitor, partial curve]",–
CCOc1ccccc1CN1CCC2(CCN(C(=O)c3cccc(OC)c3)CC2)Oc2ccccc21,–,"inconclusive: 56.2 µM [inhibitor, partial curve, poor fit]",–
COc1ccccc1-c1cccc(CN2CCC(NC(=O)c3ccccc3F)CC2)c1,–,"inconclusive: 50.1 µM [inhibitor, partial curve, poor fit]",–
COc1ccc(-c2noc([C@@H]3CCCN3C(=O)c3ccc(F)cc3Cl)n2)cc1,–,"inconclusive: 50.1 µM [inhibitor, partial curve, poor fit]",–
COc1ccc(-c2cc(-c3ccc(CO)cc3)cn3cncc23)cc1,–,active: 79.4 µM,–
O=C(NC1CCOCC1)C1=NO[C@@H]2CN(c3ccc(F)c(Cl)c3)C[C@H]12,–,"inconclusive: 126 µM [inhibitor, single point]",–

Structure (SMILES),"activity change, negative = cytotoxicity",Potency,outcome
N#Cc1cccc(C2CCN(c3cc(C4CC4)ncn3)CC2)c1,–,"inconclusive: 44.7 µM [inhibitor, partial curve, poor fit]",–
O=C(CN1C(=O)NC(c2ccc(Cl)cc2)C2=C1COC2=O)NC1CCCC1 (stereo unspecified),–,"inconclusive: 31.6 µM [inhibitor, full curve]",–
N#Cc1ccccc1CN1CCNc2nc(COc3cccc(N4CCOCC4)c3)n(Cc3ccccc3)c2C1=O,–,"inconclusive: 39.8 µM [inhibitor, full curve, poor fit]",–
Cc1ccccc1C(=O)N1CCCC1C(=O)N1CCC(N2Cc3cccn3C2=O)CC1 (stereo unspecified),inactive: -2.56%,–,–
O=C(NCCCc1ccncc1)C1CC12CCN(C(=O)c1cccc(C(F)(F)F)c1)CC2 (stereo unspecified),inactive: -17.2%,–,–
COCCCNC(=O)c1cnc2cc(C)nn2c1,–,–,inactive [at 172 µM]
Cc1noc(C)c1CCC(=O)N1CCC2(CC1)CC(CCOCC1CC1)CCO2 (stereo unspecified),inactive: -27.5%,–,–
O=C(Nc1ccc(F)cc1)c1nc2cccnc2n(Cc2ccccc2)c1=O,–,"inconclusive: 89.1 µM [inhibitor, partial curve, poor fit]",–
Cc1ccc(Nc2ccnc(N3CCCC3C(=O)NCc3cccc(F)c3)n2)cc1 (stereo unspecified),–,"inconclusive: 50.1 µM [inhibitor, partial curve, poor fit]",–
Clc1cccc(CN2CCOC[C@H](Oc3cccnc3)C2)c1,–,"inconclusive: 100 µM [inhibitor, partial curve, poor fit]",–
CN(Cc1ccsc1)c1cc(C2CC(O)C2)ncn1 (stereo unspecified),inactive: -18.2%,–,–
CC(C)Oc1ccc(C(=O)N2CCC3(CC2)C(=O)N(C)c2ccccc23)cc1,–,"inconclusive: 31.6 µM [inhibitor, full curve]",–
O=C(c1ccccc1)N1CCC2(C1)C(=NC1CCCCC1)NC(=O)N2c1cc(F)cc(F)c1 (stereo unspecified),inactive: -2.14%,–,–
CCCC(NC(C)=O)C(=O)Nc1cccc(NC(=O)Cc2ccccc2)c1 (stereo unspecified),inactive: -5.42%,–,–
C=CCc1ccccc1OCCN(C)Cc1ccccc1C(=O)O,–,"inconclusive: 89.1 µM [inhibitor, partial curve, poor fit]",–
C[S+](=O)([O-])N1Cc2ccccc2OC2(CCN(C(=O)Cc3ccc(O)cc3)CC2)C1,–,–,inactive
CC(C)CCN1CCc2nc(C(C)C)nc(-c3ccc(Cl)cc3)c2CC1,–,"inconclusive: 79.4 µM [inhibitor, partial curve, poor fit]",–
COc1ccc(C(=O)N2CCN(c3nccc(Nc4ccccc4F)n3)CC2)cc1,–,"inconclusive: 44.7 µM [inhibitor, partial curve, poor fit]",–
O=C(Cc1ccccc1)N1CC(Oc2ccc(-c3nc(-c4ccccc4)no3)cc2)C1,–,"inconclusive: 28.2 µM [inhibitor, full curve, poor fit]",–
CC(C)c1noc(C2CCCN(C(=O)CCCc3ccccc3)CCC(=O)NCC2)n1 (stereo unspecified),inconclusive: -36.7% [inhibitor],–,–
Cc1cnc(C2CN(S(=O)(=O)c3ccccc3)C2)n1Cc1cccnc1,–,–,inactive
CCOc1cc(=O)n2c(c1C(=O)N1CCCc3ccccc31)CCCC2,–,"inconclusive: 6.31 µM [inhibitor, full curve, poor fit]",–
